Experimental findings from the supplement of paper PMC10338343 are described below.

± gives the standard deviation. The list shows a part of the results, in another mix than the full data.

The test system of the experiment is MIWI (PIWIL1) piRISC loaded with L1MC piRNA (30 nt). The experiment can be described thus: pre-steady-state target cleavage rate (min^-1); MIWI and MILI are mouse PIWI proteins and EfPiwi is from a freshwater sponge; tags in brackets are library labels; higher = faster piRNA-guided slicing of the target. As to conditions: guide: L1MC piRNA 5'p-UAACUAAAUACUAUGCAAGCUGUAGGUCCU
The procedure, abridged: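 Cleave-'n-Seq: 1 nM active affinity-purified piRISC with one synthetic guide and 0.1 nM transcribed, DNA-blocked target RNA library were mixed, with or without 500 nM GTSF1 partner protein, in HEPES–potassium acetate buffer at 33 °C for 0–8 or 0–960 min. Uncleaved targets were sequenced and normalised to depth and to weakly complementary targets, three trials were pooled, and k3 was capped at 0.0001 min^-1. The pre-steady-state cleavage rate was fitted […].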

Where [1] appears, read: auxiliary factor: 500 nM mouse GTSF1.
Where [2] appears, read: auxiliary factor: none (no GTSF1).

UCCUCCUACAGCUUGCAUAGUAUUUACAUA: the “pre-steady-state target cleavage rate” value under setting [1] turned out to be 0.33 ± 0.042 and the “pre-steady-state target cleavage rate” value under setting [2] is 0.0102 ± 0.0038.
In the case of UCCUGCUACCGCUUGCAUAGUAUUUAGUUA, the “pre-steady-state target cleavage rate” value was determined as 1.1 ± 0.1 under setting [1] and 0.0571 ± 0.011 under setting [2].
On the same counts, the results for UCCACCUUGAGCUUGCAUAGUAUUUAGUUA are 0.854 ± 0.13 and 0.0329 ± 0.0057.
For UCCUGGAUGUCCUUGCAUAGUAUUUAGUUUA, in that order: 0.107 ± 0.014 and 0.00882 ± 0.0024.
Regarding UCCUGCUACAGCUUGCAUACUAUUUAGUUA, the “pre-steady-state target cleavage rate” value reads like this: under setting [1], 0.364 ± 0.018; under setting [2], 0.0347 ± 0.0053.
In the case of UCGACCUAGAGCUUGCAUACUAUUUAGUUA, the “pre-steady-state target cleavage rate” value by setting is: under setting [1], 0.273 ± 0.02; under setting [2], 0.0232 ± 0.0049.
Regarding UCCACCUACAGCUUGCAUAGUAUUUAGUA, the “pre-steady-state target cleavage rate” value by setting is: under setting [1], 0.445 ± 0.043; under setting [2], 0.00981 ± 0.0037.
Turning to UCCUGGAUCAGCUUGCAUAGUAUUAGUUA, the “pre-steady-state target cleavage rate” value stood at 0.00982 ± 0.005 under setting [1] and 0.00355 ± 0.003 under setting [2].
For AGGACCUACAGCUUGCAUAGUAAAUAGUAA, the “pre-steady-state target cleavage rate” value under setting [1] was 0.402 ± 0.06 and the “pre-steady-state target cleavage rate” value under setting [2] was 0.00431 ± 0.0033.
For the sequence UCCUCCUAGAGCUUGCAUAGUAUUUACUUA, the “pre-steady-state target cleavage rate” value amounted to 0.379 ± 0.056 under setting [1] and 0.0255 ± 0.0052 under setting [2].
On to AGGACCUUCACCUUGCAUAGUAUUUAGUUA, for which the “pre-steady-state target cleavage rate” value is 1.06 ± 0.04 under setting [1] and 0.0628 ± 0.01 under setting [2].
Regarding UCGACCUACAGCUUUCAUAGUAUUUAGUUA, the “pre-steady-state target cleavage rate” value by setting is: under setting [1], 0.584 ± 0.031; under setting [2], 0.0288 ± 0.0064.
AGGUCCUACAGCUUGCAUAGUAUUUACUUA: the “pre-steady-state target cleavage rate” value amounted to 0.425 ± 0.052 under setting [1] and 0.0799 ± 0.018 under setting [2].
With UCCACCUACAGCUUGCUUUGUAUUUAGUUA, the “pre-steady-state target cleavage rate” value came to 0.184 ± 0.013 under setting [1] and 0.00506 ± 0.00096 under setting [2].
In the case of UCCUGGAUGAGCAUGCAUAGUAUUUAGUUA, the “pre-steady-state target cleavage rate” value is 0.675 ± 0.047 under setting [1] and 0.0136 ± 0.0041 under setting [2].
Consider UCCUCCUACAGCUUGCAAGUAUUUAGUUA, for which the “pre-steady-state target cleavage rate” value reads like this: under setting [1], 0.433 ± 0.037; under setting [2], 0.00627 ± 0.0024.
With UCCACGUACAGCUUGCAUACUAUUUAGUUA, the “pre-steady-state target cleavage rate” value is 0.376 ± 0.021 under setting [1] and 0.042 ± 0.0089 under setting [2].
For UCCUGGAUGAGCUUGCAUAGUAUUUAGCUA, the “pre-steady-state target cleavage rate” value is, setting by setting: under setting [1], 0.0101 ± 0.0052; under setting [2], 0.00559 ± 0.0027.
For UCCUGGUACAGCUUGCUUAGUAUUUAGUAA, in that order: 0.504 ± 0.064 and 0.0169 ± 0.0044.
For UCCACCUACAGCUUGCAUAGUAUAUAGUUA, in that order: 0.594 ± 0.053 and 0.0232 ± 0.0052.
For the sequence UCCUGGAAGACCUUGCAUAGUAUUUAGUUA, the “pre-steady-state target cleavage rate” value was determined as 0.399 ± 0.034 under setting [1] and 0.0115 ± 0.0036 under setting [2].
As to UCCUGGUACAGCUUGCAUAGUAUUUAGAUA, the “pre-steady-state target cleavage rate” value turned out to be 0.228 ± 0.038 under setting [1] and 0.0181 ± 0.0043 under setting [2].
On to UCCUGGUACAGCCUGCAUAGUAUUUAGUUA, for which the “pre-steady-state target cleavage rate” value was determined as 0.549 ± 0.055 under setting [1] and 0.0521 ± 0.01 under setting [2].
UGGACCUAGUCCUUGCAUAGUAUUUAGUUA: the “pre-steady-state target cleavage rate” value was 0.522 ± 0.064 under setting [1] and 0.0127 ± 0.0036 under setting [2].
With UCCUGGAUGUCCUAUGCAUAGUAUUUAGUUA, the “pre-steady-state target cleavage rate” value by setting is: under setting [1], 0.0196 ± 0.0047; under setting [2], 0.00329 ± 0.0021.
In the case of UCCUGGAUGUCCUUGCAUAGUAUUUAGUAA, the “pre-steady-state target cleavage rate” value runs as follows: under setting [1], 0.0673 ± 0.013; under setting [2], 0.00569 ± 0.0017.
Consider UCCUGCUACAGCUUGCAUAGAAUAUAGUUA, for which the “pre-steady-state target cleavage rate” value by setting is: under setting [1], 0.218 ± 0.018; under setting [2], 0.00935 ± 0.0033.
On to UCCUGGUACUGCUUGCAAAGUAUUUAGUUA, for which the “pre-steady-state target cleavage rate” value by setting is: under setting [1], 0.46 ± 0.036; under setting [2], 0.0221 ± 0.0052.
On the same counts, the results for UCCUGGUUCAGCUUGCAUAGUAAUUAGUUA are 0.675 ± 0.059 and 0.0363 ± 0.0082.
UCGACCUACUAGCUUGCAUAGUAUUUAGUUA: the “pre-steady-state target cleavage rate” value was 0.784 ± 0.042 under setting [1] and 0.0512 ± 0.01 under setting [2].
On to UCCUGGAUCAGCUUGGAUACUAUUUAGUUA, for which the “pre-steady-state target cleavage rate” value by setting is: under setting [1], 0.212 ± 0.03; under setting [2], 0.033 ± 0.0082.
For UCCUGGAUGAGCUUGCAUAGUAUUUAGUGUA, the “pre-steady-state target cleavage rate” value was 0.749 ± 0.082 under setting [1] and 0.046 ± 0.011 under setting [2].
For the sequence UCCUGGAACAGCUUGGAUAGUAUUUAGAUA, the “pre-steady-state target cleavage rate” value runs as follows: under setting [1], 0.34 ± 0.042; under setting [2], 0.0248 ± 0.0067.
On to UCCUGGAACAGCUUGCAUAUAUUUAGUUA, for which the “pre-steady-state target cleavage rate” value runs as follows: under setting [1], 0.0784 ± 0.011; under setting [2], 0.0034 ± 0.0028.
Consider UCCUGCUACAGCAUGCAUAGUAUUAAGUUA, for which the “pre-steady-state target cleavage rate” value is 0.983 ± 0.1 under setting [1] and 0.00583 ± 0.0025 under setting [2].
Turning to UCCUCCUUCAGCUUGCAUAGAAUUUAGUUA, the “pre-steady-state target cleavage rate” value is, setting by setting: under setting [1], 0.338 ± 0.048; under setting [2], 0.0118 ± 0.0032.
As for UCCUGGAACAGCUUGCAUAGUUAUUAGUUA, the “pre-steady-state target cleavage rate” value by setting is: under setting [1], 0.113 ± 0.015; under setting [2], 0.015 ± 0.0044.
Consider UCGACCUAGACCUUGCAUAGUAUUUAGUUA, for which the “pre-steady-state target cleavage rate” value is 0.947 ± 0.035 under setting [1] and 0.0351 ± 0.0063 under setting [2].
On the same counts, the results for UCGACCUACUCCUUGCAUAGUAUUUAGUUA are 1.18 ± 0.039 and 0.0454 ± 0.0069.
With AGGACCUACACCUUGCAUACUAUUUAGUUA, the “pre-steady-state target cleavage rate” value runs as follows: under setting [1], 0.302 ± 0.029; under setting [2], 0.0291 ± 0.0065.
Take UCGACCUACAGCUUGCAUUGUAUUUAGUUA: the “pre-steady-state target cleavage rate” value by setting is: under setting [1], 1.08 ± 0.037; under setting [2], 0.0381 ± 0.0094.
Take UCCUGGUACAGCUUGCAUAGUAAUUUAGUUA: the “pre-steady-state target cleavage rate” value runs as follows: under setting [1], 0.0838 ± 0.011; under setting [2], 0.0077 ± 0.0026.
As to AGGAGCUACAGCUUGCAUAGUAUUUAGAAA, the “pre-steady-state target cleavage rate” value under setting [1] was 0.432 ± 0.05 and the “pre-steady-state target cleavage rate” value under setting [2] was 0.0169 ± 0.0043.
For UCGACCUACAGCUUGCAUAGUAUAAUGUUA, the “pre-steady-state target cleavage rate” value stood at 0.514 ± 0.037 under setting [1] and 0.0213 ± 0.0053 under setting [2].
For UCCUGCUACAGCUUGGAUAGUAUUUAGUAA, the “pre-steady-state target cleavage rate” value is 0.587 ± 0.057 under setting [1] and 0.0136 ± 0.0037 under setting [2].
For UCCUGGAUGUCCUUGCAUAGUAUUUACGUUA, in that order: 0.0514 ± 0.0098 and 0.00979 ± 0.0029.
On the same counts, the results for UCCUGGAACAGCUUGGAUACUAUUUAGUUA are 0.28 ± 0.033 and 0.0144 ± 0.004.
In the case of UCCUCCUACAGCUUGGAUAGUAUUUAGUAA, the “pre-steady-state target cleavage rate” value under setting [1] came out at 0.707 ± 0.045 and the “pre-steady-state target cleavage rate” value under setting [2] came to 0.0186 ± 0.0033.
Take UCCACCUACACCUUGCAUAGUAUUUAGAUA: the “pre-steady-state target cleavage rate” value stood at 0.315 ± 0.05 under setting [1] and 0.0153 ± 0.0035 under setting [2].
With UCCUCCUACAGCUCGCAUAGUAUUUAGUUA, the “pre-steady-state target cleavage rate” value turned out to be 1.31 ± 0.051 under setting [1] and 0.0488 ± 0.0093 under setting [2].
For the sequence UGGACCUACAGGUUGCAUAGUAUUUAGAAA, the “pre-steady-state target cleavage rate” value was determined as 0.357 ± 0.039 under setting [1] and 0.00592 ± 0.0019 under setting [2].
With UCCACGUACAGCAUGCAUAGUAUUUAGUUA, the “pre-steady-state target cleavage rate” value under setting [1] was 1.26 ± 0.047 and the “pre-steady-state target cleavage rate” value under setting [2] was 0.0275 ± 0.0042.
On to UCCACCUACUCGUUGCAUAGUAUUUAGUUA, for which the “pre-steady-state target cleavage rate” value under setting [1] was 0.892 ± 0.038 and the “pre-steady-state target cleavage rate” value under setting [2] came to 0.0197 ± 0.0042.
On the same counts, the results for UCCUGCUACAGCUUGCAUACUAUUUUGUUA are 0.24 ± 0.026 and 0.0165 ± 0.0024.
For the sequence UCCACCUACAGCUUGCAUAGUAUAUACUUA, the “pre-steady-state target cleavage rate” value by setting is: under setting [1], 0.211 ± 0.039; under setting [2], 0.00558 ± 0.0027.
For UCCUCCUACUGCUUGCAUAGUAUUUAGAAA, the “pre-steady-state target cleavage rate” value reads like this: under setting [1], 0.186 ± 0.031; under setting [2], 0.00501 ± 0.0016.
On the same counts, the results for UCCUGGAUCUGCUUGCAUAGUAUUUAGAUA are 0.178 ± 0.018 and 0.0113 ± 0.0032.
On the same counts, the results for UCCUGGAACAGCUUGAAUAGUAUUUAGUUA are 0.89 ± 0.047 and 0.0292 ± 0.006.
For UGCACCUACAGCUUGCAUAGUAUUUAGAAA, in that order: 0.471 ± 0.051 and 0.0074 ± 0.0034.
With AGGUCCUACAGCUUGCAUAGAAUUUAGUUA, the “pre-steady-state target cleavage rate” value was 0.501 ± 0.03 under setting [1] and 0.0247 ± 0.0074 under setting [2].
